Source: PubChem BioAssay AID1645887 (National Center for Advancing Translational Sciences (NCATS), 2021)
“And” between values parts separate entries of the source, which are not always exact repeats. Equal values may be shown once. Among all 16,000 compounds or so, about 40 (0.2%) were called active. Not shown: some 1% with an inconclusive outcome. Calls follow the shape of the dose curve; as a rule, active = well fitted activation curve with a large enough effect; inconclusive = small, poorly fitted or top-dose-only effect, or another doubt; inactive = no such curve, though single readings can be large or run the other way. This is one part of the list.
% is scaled to controls: 0 for no effect and ±100 for the full control effect.
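Also: exchange makes BODIPY-GDP fluorescence drop when released from Rap1B; series mostly up to about 150 µM.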

The compounds below were run against Rap guanine nucleotide exchange factor 4 (Homo sapiens) (UniProt Q8WZA2) (assay: Validation qHTS for agonist of cAMP-regulated guanine nucleotide exchange factor 4 (EPAC2)). Conditions: EPAC2 Rap1B BODIPY-GDP exchange, fluorescence; activation: active compounds read high.
Sequence of UniProt Q8WZA2 (Q8WZA2 whole entry, looked up): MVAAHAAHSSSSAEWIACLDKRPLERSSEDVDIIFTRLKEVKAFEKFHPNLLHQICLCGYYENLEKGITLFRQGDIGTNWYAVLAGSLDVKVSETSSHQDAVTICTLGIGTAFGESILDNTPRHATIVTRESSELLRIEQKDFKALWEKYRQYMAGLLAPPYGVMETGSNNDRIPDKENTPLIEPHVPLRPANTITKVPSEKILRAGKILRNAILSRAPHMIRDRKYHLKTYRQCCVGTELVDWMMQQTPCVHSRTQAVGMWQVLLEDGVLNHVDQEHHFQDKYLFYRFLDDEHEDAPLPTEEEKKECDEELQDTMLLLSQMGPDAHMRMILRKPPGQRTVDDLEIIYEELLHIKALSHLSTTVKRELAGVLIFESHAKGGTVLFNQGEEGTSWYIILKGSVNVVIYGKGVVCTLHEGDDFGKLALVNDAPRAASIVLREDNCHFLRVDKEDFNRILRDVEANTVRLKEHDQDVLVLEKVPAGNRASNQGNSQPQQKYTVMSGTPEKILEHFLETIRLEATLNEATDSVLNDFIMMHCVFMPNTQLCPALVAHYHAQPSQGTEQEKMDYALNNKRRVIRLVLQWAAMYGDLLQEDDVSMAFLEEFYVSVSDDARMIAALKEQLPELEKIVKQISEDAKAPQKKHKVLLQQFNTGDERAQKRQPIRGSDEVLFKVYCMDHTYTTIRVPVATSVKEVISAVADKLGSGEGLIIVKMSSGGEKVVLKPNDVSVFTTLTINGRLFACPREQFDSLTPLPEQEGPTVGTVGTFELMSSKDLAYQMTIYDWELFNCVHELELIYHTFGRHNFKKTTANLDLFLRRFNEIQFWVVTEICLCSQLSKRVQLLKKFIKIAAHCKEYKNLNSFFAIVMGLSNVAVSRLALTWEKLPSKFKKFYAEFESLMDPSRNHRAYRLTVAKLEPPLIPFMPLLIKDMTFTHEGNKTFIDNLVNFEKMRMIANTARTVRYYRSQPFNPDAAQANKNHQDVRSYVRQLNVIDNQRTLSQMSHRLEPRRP
Summary of the method: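 Fluorescent exchange assay: 100 nM EPAC2 with 250 nM RAP1B-BODIPY-GDP and 50 uM GDP; compound added, 5 min at room temperature, then read (ex 480/em 540 nm) every 5 min for 30 min. Normalized to 6.5 mM cAMP agonist control.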
For C=C1C2CCC3[C@@](CC[C@@H]4C(C(=O)O)CC(OC5OC(CO)C(OS(=O)(=O)O)C(OS(=O)(=O)O)C5OC(=O)CC(C)C)C[C@]34C)(C2)C1O (stereo partly specified), the activation was inactive: -1.17%.
For O=C1CCCCC1CN1CCCCC1 (stereo unspecified), the activation was inactive: -9.13%.
CCN1C[C@]2(COC)[C@H](O)C[C@H](OC)[C@@]34[C@@H]5C[C@@]6(O)[C@H](OC(=O)c7ccccc7)[C@@H]5[C@@](OC(C)=O)([C@@H]([C@H](OC)[C@H]23)[C@@H]14)[C@@H](O)[C@@H]6OC was tested, and the activation was inactive: -9.4%.
In the case of CNc1ccc(C(=O)CC(O)CCC(C)C2OC(=O)CC(O)CC(=O)CC(O)CC(O)CC(O)CC(O)CC3(O)CC(O)C(C(=O)OC)C(CC(O[C@@H]4O[C@H](C)[C@@H](O)[C@H](N)[C@@H]4O)/C=C/C=C/C=C/C=C/C=C/C=C/C=C/C2C)O3)cc1 (stereo partly specified), the activation is reported as inactive: 2.94%.
In the case of COc1cc2c3cc1Oc1c(OC)c(OC)cc4c1C(Cc1cccc(c1)Oc1ccc(c(O)c1)CC3N(C)CC2)N(C)CC4 (stereo unspecified), the activation is reported as inactive: -2.28%.
For CC(C)C[C@H](NC(=O)[C@H](Cc1ccccc1)NC(=O)CNC(=O)[C@H](C)NC(=O)[C@@H](N)Cc1ccc(O)cc1)C(=O)O, the activation was inactive: 7.45%.
O=[N+]([O-])c1cc([As](=O)(O)O)ccc1O was tested, and the activation was inactive: 8.67% and inactive: -2.07%.
In the case of CCN1C[C@@]2(OC(=O)c3ccccc3NC(C)=O)CCC(OC)[C@@]34C5CC6C(OC)C[C@@](O)(C(CC23)[C@@H]14)C5(O)C6OC (stereo partly specified), the activation is reported as inactive: -30.3%.
In the case of O=[N+]([O-])c1cc(I)c(O)c(I)c1, the activation is reported as inactive: -12.7%.
In the case of c1ccc2c(c1)[I+]c1ccccc1-2, the activation is reported as inactive: 9.27% and inactive: 3.47% and inactive: -13.1%.
With COc1cc2c(cc1OC)[C@]13CCN4CC5=CCOC6CC(=O)N2[C@@H]1[C@@H]6C5C[C@@H]43 (stereo partly specified) the activation was inactive: -7.36%.
With CCc1cccc(CC)c1N(COC)C(=O)CCl the activation was inactive: -3.08%.
For COC(C/C=C/C=C/CC/C=C\CC(C)/C=C\C(=C/C(=O)O)CC(=O)O)/C(C)=C\C=C(/C)C(=O)O (stereo unspecified), the activation was inactive: 8.21%.
O=C(O)c1ccc2[nH]cc(CCCCN3CC=C(c4ccccc4)CC3)c2c1 was tested, and the activation was inactive: -15.8%.
For CNc1ccc2oc(C[C@H]3O[C@@]4(CC[C@H]3C)O[C@H]([C@H](C)C(=O)c3ccc[nH]3)[C@H](C)C[C@H]4C)nc2c1C(=O)O, the activation was inactive: -66.1%.
In the case of CC(C)CCCC1(C)C=Cc2c(O)c3c(c(CCC(C)C)c2O1)OC12C(CC4CC1C(C)(C)OC2(CCC(C)C(=O)O)C4O)C3=O (stereo unspecified), the activation is reported as inactive: -55.4%.
